Measurements taken from ChEMBL document CHEMBL1157539, “Thousands of chemical starting points for antimalarial lead identification” (Nature, 2010).
In all, about 13,000 compounds were measured (“IFI”: median about 4, highest 2% from about 17 on). This is one part of the list.

Experiment: GSK_TCMDC: Inhibition Frequency Index (IFI). The number of non-kinase HTS assays where a compound showed > 50 % inhibition, expressed as a percentage of the number of such assays in which the compound was tested (-0 is zero)
Type: functional
Molecule `Cc1[nH]c(C)c(-c2ccc(OCc3ccc(F)cc3)cc2)c(=O)c1Br` has an IFI of 0%.
`CCCOc1ccc(N2C(N)=NC(N)=NC2(C)C)cc1` gave an IFI of 1.54%.
`CCCC(=O)NC(NC(=S)Nc1ccc([N+](=O)[O-])cc1)C(Cl)(Cl)Cl` (stereo not given) showed an IFI of 7.64%.
In the case of `OCCC1CCN(Cc2ccc(-c3ccc(-c4nc5ccccc5[nH]4)cc3)cc2)CC1`, the IFI was 4.23%.
With `O=S(=O)(NCCN1CCCC1)c1ccc(-c2cccc(CNC3Cc4ccccc4C3)c2)cc1F` the IFI was 7.83%.
Molecule `CCS(=O)(=O)N1CCN(c2nc(-c3ccccc3)nc(COC)c2Cc2ccccc2F)CC1` has an IFI of 3.45%.
Molecule `COc1ccc2cc(C(C)NC3CCN(c4cccc(NC(=O)c5ccncc5)c4)CC3)ccc2c1` (stereo not given) has an IFI of 2.44%.
With `CN1CCc2cc(NS(=O)(=O)c3ccc(-c4ccc(Cl)s4)cc3)c(N3CCCCC3)cc2CC1` the IFI was 5.56%.
Work on `O=C(NC1CCCCCC1)C1CCCN(C(=O)c2ccc(O)c(-c3ccc(Cl)c(Cl)c3)c2)C1` (stereo not given) yielded an IFI of 2.24%.
Molecule `COc1cc(OC)cc(C(=O)Nc2ccc(Nc3nc(C)cc(N(C)C)n3)cc2)c1` has an IFI of 5.56%.
With `COc1cccc(C(=O)Nc2ccc(S(=O)(=O)c3cc4c(cc3OC)CCN(C)CC4)cc2)c1` the IFI was 1.85%.
`N#Cc1cccc(-c2cccc(C(=O)NC3CCC(CCN4CCc5ccc(C#N)cc5CC4)CC3)c2)c1` (stereo not given) showed an IFI of 6.72%.
Work on `Cc1cccc2nc(-c3cccc(-c4cccc(NC(=O)c5ccoc5)c4)c3)[nH]c12` yielded an IFI of 6.19%.
In the case of `CC(C)(C)OC(=O)N[C@@H](CS(=O)(=O)CCNC(=N)COCc1ccccc1)C(=O)OC(C)(C)C`, the IFI was 0.74%.
`OCC1CCN(Cc2cccc(-c3ccc(-c4nc5cc(C(F)(F)F)ccc5[nH]4)cc3)c2)CC1` showed an IFI of 2.97%.
For `CN(C)c1cccc2c1nc(-c1ccc3c(c1)CCO3)n2CCNCc1ccccc1`, the IFI was 4.2%.
`Cc1cc(NC(=O)Nc2cccc(N(C)C)c2)c2ccccc2n1` showed an IFI of 6.85%.
In the case of `O=C(Nc1cccc(C(F)(F)F)c1)c1ccc(S(=O)(=O)NC2CCN(CC3CCCCC3)CC2)cc1`, the IFI was 5.05%.
`CN(C)CCC=C1c2ccccc2Sc2c(O)cc(Cl)cc21` gave an IFI of 6.87%.
Molecule `c1ccc2c(c1)CN(CC1CCOCC1)CC1(CCN(Cc3c[nH]c4cnccc34)CC1)O2` has an IFI of -0%.
In the case of `CC(=O)C1=NN(c2ccc(Cl)cc2)C(c2cccs2)N1c1ccccc1` (stereo not given), the IFI was 0.7%.
With `COc1ccc(-c2ccc(NC(=O)c3cccs3)cc2)cc1CN1CCCN(C)CC1` the IFI was 4.85%.
With `CC1(C)C2C=C(CN3CCC(NC(=O)Nc4ccc(Cl)c(Cl)c4)CC3)C1CC2` (stereo not given) the IFI was 8.59%.
For `Cc1ccc(NC(=O)c2ccc(CN3CCCN(Cc4cccc(O)c4)CC3)cc2)cc1C`, the IFI was 9.09%.
Molecule `O=C(CN1CCCC1)Nc1cccc(C(=O)Nc2cccc(C(F)(F)F)c2)c1` has an IFI of 1.74%.
`Cc1ccc(O)cc1C[C@@H]1C(=O)CC[C@@]2(C)[C@H]1CC[C@]2(C)O` gave an IFI of -0%.
Molecule `Cc1cc(NC(=O)c2ccco2)ccc1OC1CCN(Cc2ccc(F)cc2)CC1` has an IFI of 0%.
In the case of `COc1ccc(-c2cn3c(C(=O)Nc4ccccc4Cl)c(-c4ccccc4)c4c3n2CCCC4)cc1`, the IFI was 0%.
In the case of `Cc1c(C(=O)Nc2cc(Sc3ccc(F)cc3)cc([N+](=O)[O-])c2)sc2ncn(Cc3ccccc3F)c(=O)c12`, the IFI was 0.87%.
Work on `COc1ccc(CNC2CCN(C)CC2)cc1-c1ccc(S(=O)(=O)NCc2ccccc2)c(F)c1` yielded an IFI of 10.6%.
`Cn1nc(C(F)(F)F)c(-c2ccc(F)cc2)c1NC(=O)Nc1ccc(F)cc1F` showed an IFI of 8.05%.
With `COc1cc2c(cc1C=CC(=O)N1CCN(Cc3nc(O)c4c(C)c(C)sc4n3)CC1)OC(C)C2` (stereo not given) the IFI was 1.96%.
`Nc1ncc(-c2cccc(F)c2)cc1-c1nc2cc(F)ccc2[nH]1` showed an IFI of 13.8%.
In the case of `COc1ccc2ccccc2c1C=NN=c1cc(C)[nH]c2cc(C(F)(F)F)ccc12`, the IFI was 0.75%.
Molecule `COC(=O)c1ccc(C(=O)NCCCCN2CCC(c3ccc4c(c3OC)CCCC4)CC2)cc1-c1ccc(C(F)(F)F)cc1` has an IFI of 11.4%.
`NCCCNc1ccnc2cc(Cl)ccc12` gave an IFI of 0%.
Molecule `CCNc1cc(C(=O)N[C@@H](Cc2ccccc2)[C@H](O)CN[C@H]2CCc3ccccc32)cc(N2CCCC2=O)c1` has an IFI of 2.17%.
In the case of `c1ccc(CNCc2ccc(-c3ccc(-c4nc5ccccc5[nH]4)cc3)cc2)cc1`, the IFI was 13.1%.
With `CC(C)[C@H](NC(=O)c1ccc(O)c(-c2cccc(C(F)(F)F)c2)c1)C(=O)NC1CCCc2ccccc21` (stereo not given in full) the IFI was 2.92%.
`COc1ccc2nccc([C@@H](O)CN3CCC(NC(=O)Cn4nc(-c5ccc(C(F)(F)F)cc5)ccc4=O)CC3)c2c1` gave an IFI of 0.74%.
In the case of `COc1cc2nc(NCCc3ccccc3)nc(NCCCc3ccccc3)c2cc1OC`, the IFI was 11.4%.
`CCCC(N)C(=O)NC1CCN(c2c(F)c(N)c3c(=O)c(C(=O)O)cn4c3c2Oc2ccccc2-4)C1` (stereo not given) gave an IFI of 10.9%.
Molecule `CC(C)(C)c1cc(C(=O)Nc2cccnc2)cc(C(=O)Nc2cccnc2)c1` has an IFI of 0%.
In the case of `CN1CCN(c2cccc(-c3nnc(-c4ccc(OCC(=O)NCc5ccc(C(F)(F)F)cc5)c([N+](=O)[O-])c4)o3)c2)CC1`, the IFI was 4.32%.
In the case of `CC[C@H](C)CNC(=O)c1cncc(-c2ccc(CN(C)C3CCN(C)CC3)cc2)c1`, the IFI was -0%.
With `CCCOc1ccc(C(F)(F)F)cc1NC(=O)c1nc2nc(C)cc(C)n2n1` the IFI was 1.01%.
Molecule `CCCCCCN1CCC(NCc2ccc(C)cc2)CC1` has an IFI of 3.4%.
Work on `Cc1cc(N2CCN(CC3CCCCC3)CC2)nc(Nc2ccc(Br)cc2)n1` yielded an IFI of 2.67%.
With `COc1ccc(NS(=O)(=O)c2cccc(C(=O)Nc3ccc(C(F)(F)F)cc3)c2)cc1N1CCN(CC(C)C)CC1` the IFI was 2.84%.
`Cc1ccc2c(=O)cc(CCc3cccc(F)c3F)n(CC(=O)N(Cc3ccc(-c4ccc(C(F)(F)F)cc4)cc3)C3CCN(C)CC3)c2n1` gave an IFI of 8.51%.
`O=C(Nc1ccsc1)Nc1cccc(-c2cccc(-c3nc4ccccc4[nH]3)c2)c1` showed an IFI of 4.04%.
`COc1ccc(Cc2c(N)nc3nc(N)nc(N)c3c2C)cc1` showed an IFI of 2.92%.
Molecule `Cc1ccc(Nc2ccnc3ccc(C(F)(F)F)cc23)cc1O` has an IFI of 2.92%.
Molecule `CC(C)Sc1nc(-c2ccccc2)nc2c1COC(C)(C)C2` has an IFI of 0%.
In the case of `COc1cccc(Cc2c(C)nc3nc(N)nc(N)c3c2C)c1`, the IFI was 2.19%.
Molecule `Cc1ccc(/C=C/C(=O)NCCCCCN2CCC(c3c[nH]c4ccccc34)CC2)cc1` has an IFI of 6.29%.
Work on `O=C(NCc1cccc(Cl)c1)c1ccc(CNC2CCN(Cc3ccccc3)CC2)cc1` yielded an IFI of 2.22%.
Work on `CN(CCCc1c[nH]c2ccccc12)CC1CCN(C(=O)/C=C/c2ccc(Cl)c(Cl)c2)CC1` yielded an IFI of 9.77%.
Molecule `CCCCCCc1cc2cc(-c3nc(-c4ccc(OC)cc4)cs3)c(=O)oc2cc1O` has an IFI of 4.46%.
`CC1(C)N=C(N)N=C(N)N1CCc1ccccc1` showed an IFI of 0.73%.
Molecule `Cc1cc(N2CCN(C(=O)OC(C)(C)C)CC2)ccc1N` has an IFI of 5.04%.
In the case of `CC(C)N(Cc1cnc(N)c(C#N)n1)c1ccc(Cl)c(Cl)c1`, the IFI was 3.65%.
Molecule `Nc1ncc(-c2cn[nH]c2)cc1-c1nc2ccc(F)cc2[nH]1` has an IFI of 6.06%.
In the case of `Cc1cccc(C)c1OC(=O)C(C)C(O)C1(Sc2ccccc2)CCN(C)CC1` (stereo not given), the IFI was 0.75%.
In the case of `CCCC(C)c1cnc2nc(N)nc(N)c2c1C` (stereo not given), the IFI was 2.14%.
For `N=C(N)c1ccc(NC(=O)c2cc(Sc3ccc(O)c(C(=O)Nc4ccc(C(=N)N)cc4)c3)ccc2O)cc1`, the IFI was 9.52%.
With `Cc1cccc2nc(-c3cccc(-c4cccc(NC(=O)c5cn(C)c(=O)n5C)c4)c3)[nH]c12` the IFI was 5.56%.
Molecule `CC(=O)Nc1ccc(C(=O)Nc2cccc(-c3csc(-c4nc5ccccc5[nH]4)c3)c2)cn1` has an IFI of 1.85%.
`O=C(NC1CCN(Cc2ccccc2)CC1)c1ccc(-c2nc3cc(F)c(F)cc3[nH]2)s1` showed an IFI of 0%.
Molecule `CCOc1ccc(C(=O)Nc2cc(Cl)ccc2O)cc1Cl` has an IFI of 2.88%.
Molecule `O=C(Nc1ccccc1)N(Cc1cccc(-c2ccc(CNCCc3ccccc3)cc2)c1)C1CCN(Cc2ccccc2)CC1` has an IFI of 12.8%.
Molecule `Oc1ccc(CCCNc2nc(NCc3ccccc3-c3ccccc3)nc(N3CCNCC3)n2)cc1` has an IFI of 14.9%.
For `Cc1cccc2nc(-c3ccc(-c4cccc(NC(=O)c5cnn6cccnc56)c4)cc3)[nH]c12`, the IFI was 5.71%.
Work on `COc1ccc(-c2nc(NC(=O)Cc3cccc(OC)c3)sc2C)cc1` yielded an IFI of 1.85%.
For `Nc1nc(N)c2cc(C#Cc3ccc(-c4ccccc4)cc3)ccc2n1`, the IFI was 0.74%.
With `O=C(Nc1ccc(Oc2ccccc2)cc1)N[C@@H](Cc1ccc(O)cc1)C(=O)NC1CCN(Cc2ccc(O)c([N+](=O)[O-])c2)C1` (stereo not given in full) the IFI was 2.9%.
In the case of `Cc1cccc2nc(-c3ccc(-c4ccc(CN5CCN(CCN6CCOCC6)CC5)cc4)cc3)[nH]c12`, the IFI was 4.23%.
`CC(C)CCN1CCC(Oc2ccc(NC(=O)c3cccs3)cc2Cl)C1` (stereo not given) showed an IFI of 10.9%.
Work on `OCC1CCCCN1Cc1cccc(-c2cccc(-c3nc4ccccc4[nH]3)c2)c1` (stereo not given) yielded an IFI of 2.82%.
For `COc1ccc(CNCc2ccc(-c3ccc(-c4nc5cc(F)ccc5[nH]4)cc3)cc2)cc1`, the IFI was 13.1%.
With `COc1cc2c(cc1OC)C(C(=O)c1ccccc1)=NCC2` the IFI was 0.71%.
For `O=C(CCc1c[nH]cn1)Nc1cccc(-c2ccc(-c3nc4ccccc4[nH]3)s2)c1`, the IFI was 0.88%.
`O=C(Nc1ccc(Cl)c(C(F)(F)F)c1)NC1CCN(CCCCCNC(=O)C2CC2c2ccc(Cl)c(Cl)c2)CC1` (stereo not given) gave an IFI of 17.1%.
`COc1ccc(Cn2c(=O)[nH]c3cc(C(=O)NC4CCN(Cc5ccccc5)CC4)ccc3c2=O)cc1` showed an IFI of 5%.
In the case of `COc1ccc(C2CC(=O)C3=C(C2)NC(C)=C(C(=O)OC2CCCC2)C3c2ccc(O)cc2)cc1OC` (stereo not given), the IFI was 2.84%.
Molecule `COc1cc(NC(=O)CCCCCCCN2CCN(C)CC2)c2ncccc2c1` has an IFI of -0%.
Work on `O=C(C=Cc1ccc(Cl)c(Cl)c1)NCCCCCN1CCC(CCNS(=O)(=O)c2ccc(Br)cc2)CC1` yielded an IFI of 10.8%.
With `O=C(NCCCCN1CC=C(c2ccc3c(c2OCc2ccccc2)CCCC3)CC1)c1ccc(-c2ccc(C(F)(F)F)cc2)cc1` the IFI was 7.83%.
In the case of `O=C(/C=C/c1ccc(Cl)cc1)NCCCCCN1CCCC(C(=O)Nc2ccc(Cl)c(Cl)c2)C1` (stereo not given), the IFI was 12.2%.
With `COc1cc(F)c2ncc(F)c([C@@H](O)CN3CCC(NCc4cc5c(cn4)OCCO5)CC3)c2c1` the IFI was 0%.
